Some of the results follow. Many values rest on one well or one pass, so single values are uncertain.
How the values were obtained:
Assay in all cases: cell count relative to DMSO control; melanoma cells; higher = more viable cells
Conditions in all cases: library dose: low library concentration; 72 h
MZ2-MEL = tested on: MZ2-MEL
MeWo = tested on: MeWo
RPMI7951 = tested on: RPMI7951
RVH-421 = tested on: RVH-421
SkMel28 = tested on: SkMel28
SkMel2 = tested on: SkMel2
SkMel30 = tested on: SkMel30
SkMel5 = tested on: SkMel5
UACC257 = tested on: UACC257
UACC62 = tested on: UACC62
WM115 = tested on: WM115
WM1716 = tested on: WM1716
WM1745 = tested on: WM1745
WM3526 = tested on: WM3526
WM3619 = tested on: WM3619
WM451Lu = tested on: WM451Lu
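Note: cell number obtained by counting DAPI-stained nuclei in high-throughput microscope images with image analysis software, screen run in 1,536-well plates.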

Compound	cell count (MZ2-MEL)	cell count (MeWo)	cell count (RPMI7951)	cell count (RVH-421)	cell count (SkMel28)	cell count (SkMel2)	cell count (SkMel30)	cell count (SkMel5)	cell count (UACC257)	cell count (UACC62)	cell count (WM115)	cell count (WM1716)	cell count (WM1745)	cell count (WM3526)	cell count (WM3619)	cell count (WM451Lu)
CNC(=O)c1cc(Oc2ccc(NC(=O)Nc3ccc(Cl)c(C(F)(F)F)c3)cc2)ccn1 [sorafenib] + C=CCn1c(=O)c2cnc(Nc3ccc(N4CCN(C)CC4)cc3)nc2n1-c1cccc(C(C)(C)O)n1 [MK1775] (first compound 0.4 µM, partner dose 0.02 µM)	107%	104%	90.4%	79%	82.4%	92.3%	105%	85.6%	110%	89%	90.2%	88.3%	93.7%	97.4%	71.4%	99.3%
C[C@@H](Oc1cc(-c2cnn(C3CCNCC3)c2)cnc1N)c1c(Cl)ccc(F)c1Cl [Crizotinib] + Cn1c(Nc2ccc(C(F)(F)F)cc2)nc2cc(Oc3ccnc(-c4ncc(C(F)(F)F)[nH]4)c3)ccc21 [CHIR265] (first compound 0.2 µM, partner dose 0.08 µM)	96.9%	76.2%	66.6%	55.5%	73.4%	92.3%	78.5%			57.2%	71.3%	85.9%	78.2%	73.9%	84.2%	106%
C[C@@H](Oc1cc(-c2cnn(C3CCNCC3)c2)cnc1N)c1c(Cl)ccc(F)c1Cl [Crizotinib] + COc1ccc(COc2ccc(Cc3cnc(N)nc3N)cc2OC)cc1 [GW2580] (first compound 0.2 µM, partner dose 1 µM)	96%	91.7%	104%	110%	83.7%	104%	91.2%	88.6%	95.1%	105%	98.1%	113%	100%	76.7%	90.7%	99.2%
C=CCNC1=C2C[C@@H](C)C[C@H](OC)[C@H](O)[C@@H](C)/C=C(\C)[C@H](OC(N)=O)[C@@H](OC)/C=C\C=C(/C)C(=O)NC(=CC1=O)C2=O [Tanespimycin] + C#Cc1cccc(Nc2ncnc3cc(OCCOC)c(OCCOC)cc23)c1 [erlotinib] (first compound 0.002 µM, partner dose 0.8 µM)	93.8%	84.2%	66.8%	102%	75.4%	97.8%	98.3%			86.7%	84.7%	104%	48.7%	99.7%	57.9%	92.3%
CNC(=O)c1cc(Oc2ccc(NC(=O)Nc3ccc(Cl)c(C(F)(F)F)c3)cc2)ccn1 [sorafenib] + O=C(O)c1ccc(-c2c[nH]c3ncc(-c4ccccc4)cc23)cc1C1CCCC1 [GSK650394] (first compound 0.4 µM, partner dose 0.16 µM)	103%	94.8%	108%	124%	103%	96.9%	103%	83.8%	127%	82.5%	97.5%	93.8%	106%	107%	110%	96.4%
C[C@@H](Oc1cc(-c2cnn(C3CCNCC3)c2)cnc1N)c1c(Cl)ccc(F)c1Cl [Crizotinib] + COc1ccc(-c2ccc3c(N4CCOCC4)nc(N4C[C@@H](C)O[C@@H](C)C4)nc3n2)cc1CO [KU0063794] (first compound 0.2 µM, partner dose 0.02 µM)	98.7%	90.3%	107%	76.8%	80.3%	100%	93.5%	82.9%	79.8%	86.2%	106%	95.5%	96.3%	91.9%	89.1%	98.2%
CN1CCN(c2ccc3nc(-c4c(N)c5c(F)cccc5[nH]c4=O)[nH]c3c2)CC1 [Dovitinib] + CN(NC(=O)CC(=O)NN(C)C(=S)c1ccccc1)C(=S)c1ccccc1 [STA4783] (first compound 0.1 µM, partner dose 0.006 µM)	101%	96.7%	109%	92.3%	94.3%	110%	67.9%	96.4%	114%	96.2%	77.9%	79.4%	58.6%	93.2%	76.1%	73.3%
CN1CCN(c2ccc3nc(-c4c(N)c5c(F)cccc5[nH]c4=O)[nH]c3c2)CC1 [Dovitinib] + CO[C@@H]1[C@H](N(C)C(=O)c2ccccc2)C[C@H]2O[C@]1(C)n1c3ccccc3c3c4c(c5c6ccccc6n2c5c31)C(=O)NC4 [Midostaurin] (first compound 0.1 µM, partner dose 0.08 µM)	94%	87.4%	106%	97.1%	106%	89.1%	92.4%	84.4%	79.5%	87.6%	89.3%	98.1%	86.2%	93.8%	118%	89.3%
C=CCNC1=C2C[C@@H](C)C[C@H](OC)[C@H](O)[C@@H](C)/C=C(\C)[C@H](OC(N)=O)[C@@H](OC)/C=C\C=C(/C)C(=O)NC(=CC1=O)C2=O [Tanespimycin] + COc1cc(Nc2ncc(F)c(Nc3ccc4c(n3)NC(=O)C(C)(C)O4)n2)cc(OC)c1OC [Tamatinib] (first compound 0.002 µM, partner dose 0.4 µM)	95.7%	81.9%	74.4%	94.8%	90.4%	92.3%	90.1%	87.1%	78%	80.5%	77.5%	91.7%	62.5%	85.3%	81.4%	89.9%
C[C@@H](Oc1cc(-c2cnn(C3CCNCC3)c2)cnc1N)c1c(Cl)ccc(F)c1Cl [Crizotinib] + CCCS(=O)(=O)Nc1ccc(F)c(C(=O)c2c[nH]c3ncc(Cl)cc23)c1F [PLX4720] (first compound 0.2 µM, partner dose 0.08 µM)	84%	88.2%	114%	77.2%	78.5%	92.9%	107%			75%	85.7%	119%	90.6%	89.3%	105%	97.3%
CS(=O)(=O)CCNCc1ccc(-c2ccc3ncnc(Nc4ccc(OCc5cccc(F)c5)c(Cl)c4)c3c2)o1 [lapatinib] + O=C1NC(=O)/C(=C/c2ccc(-c3ccc(F)cc3O)o2)S1 [AS252424] (first compound 0.8 µM, partner dose 1 µM)	97%	99.7%	94.5%	99.1%	108%	88.3%	103%	102%	78.4%	102%	91.5%	104%	113%	84.4%	84.7%	60.4%
CN1CCN(c2ccc3nc(-c4c(N)c5c(F)cccc5[nH]c4=O)[nH]c3c2)CC1 [Dovitinib] + Cn1cc(/C=C2\C(=O)Nc3cccnc32)c2ccccc21 [GW441756] (first compound 0.1 µM, partner dose 0.4 µM)	98%	100%	113%	94.6%	82%	103%	97.2%	95.9%	95.3%	88.4%	92.9%	140%	81.5%	94.6%	84.9%	108%
C[C@@H](Oc1cc(-c2cnn(C3CCNCC3)c2)cnc1N)c1c(Cl)ccc(F)c1Cl [Crizotinib] + O=c1cc(-c2cccc3c2Sc2ccccc2S3)oc(N2CCOCC2)c1 [KU55933] (first compound 0.2 µM, partner dose 1 µM)	98.8%	91.8%	92.5%	100%	85.2%	96.5%	82.5%	97.4%	84.5%	106%	100%	107%	82.7%	86.4%	114%	96.9%
C[C@@H](Oc1cc(-c2cnn(C3CCNCC3)c2)cnc1N)c1c(Cl)ccc(F)c1Cl [Crizotinib] + COc1cc2c(Oc3ccc4[nH]c(C)cc4c3F)ncnc2cc1OCCCN1CCCC1 [cediranib] (first compound 0.2 µM, partner dose 0.4 µM)	98.5%	99.7%	114%	104%	108%	96.6%	105%	102%	83.5%	88.2%	99.5%	113%	97%	102%	121%	91.7%
CNC(=O)c1cc(Oc2ccc(NC(=O)Nc3ccc(Cl)c(C(F)(F)F)c3)cc2)ccn1 [sorafenib] + Nc1ncn([C@H]2C[C@H](O)[C@@H](CO)O2)c(=O)n1 [decitabine] (first compound 0.4 µM, partner dose 0.1 µM)	76.1%	90.6%	86.1%	86.8%	78.3%	114%	121%			76.4%	93.3%	76.6%	88.4%	94.9%	82.3%	104%
CNC(=O)c1cc(Oc2ccc(NC(=O)Nc3ccc(Cl)c(C(F)(F)F)c3)cc2)ccn1 [sorafenib] + O=C(CCCCCCC(=O)Nc1ccccc1)NO [vorinostat] (first compound 0.4 µM, partner dose 0.08 µM)	104%	91.8%	101%	90.7%	89.6%	93.8%	99.4%	97%	78.9%	87.6%	119%	109%	91.2%	63.5%	94.9%	82.9%
C=CCNC1=C2C[C@@H](C)C[C@H](OC)[C@H](O)[C@@H](C)/C=C(\C)[C@H](OC(N)=O)[C@@H](OC)/C=C\C=C(/C)C(=O)NC(=CC1=O)C2=O [Tanespimycin] + CN(C)S(=O)(=O)c1ccc2c(c1)/C(=C/c1cc3c([nH]1)CCCC3)C(=O)N2 [SU6656] (first compound 0.002 µM, partner dose 0.4 µM)	97.6%	85.9%	67.5%	105%	69.9%	107%	91.3%	86.7%	94.5%	77.6%	56.3%	106%	63.7%	148%	45.3%	92.5%

From the supplement of paper PMC4604168 (melanoma cell lines)
